The target in experiment [1] is cyno/rhesus OX40 expressed on Jurkat NFκB-luciferase reporter clone B2 (cynomolgus/rhesus monkey). The experiment can be described thus: cell-based or functional assay.
Experiment [2] concerns the target T1, Human TNFRSF9 (CD137) expressed on HEK293 cells (human, UniProt Q07011 24-255).
T1 construct: whole, on cells; also called 4-1BB
The experiment can be described thus: flow cytometry histogram, transiently transfected HEK293 cells, goat anti-human AlexaFluor 647 secondary [FIGURE 4A-B, con't), panel A (cont'd]. An excerpt: (§1) cDNA constructs capable of directing the expression of individual TNFRSF members, when transfected into mammalian cells, were obtained from Origene Technologies, Rockville, Md. These cDNA constructs were amplified and purified by the Protein Sciences group at MedImmune in Gaithersburg, Md. for use in transient transfections. […] Forty-eight hours post transfection, cells were removed from tissue culture plates by trypsinization. […] Cells were then suspended in cold FACS buffer (PBS+2% FBS) and plated into 96 well non-tissue culture-treated plates for binding studies with TNFRSF member-specific mAbs (Table 3-3) and OX40mAb24.
(§2) For binding of antibodies or OX40mAb24, HEK cells were pelleted, FACS buffer removed, and cells suspended in FACS buffer containing 2 μg/mL propidium iodide (PI) and either a fluorochrome-labeled mAb, specific for the transfected TNFRSF member, at a concentration recommended by the manufacturer or with OX40mAb24 at a concentration of 1 μg/mL. For binding controls, cells were separately incubated with fluorochrome-labeled isotype control antibodies. […] Thereafter, cells incubated with fluorochrome-labeled monoclonal antibodies were washed in cold FACS buffer and then binding events collected and analyzed by flow cytometry using an LSRII flow cytometer (BD Biosciences, San Jose, Calif.) and FlowJo software, as described in Section 3.2.3. […]
On the technique in general: A flow cytometer gives signals particle by particle.

Experiment [3] has as its target T2, Human TNFRSF14 (HVEM) expressed on HEK293 cells (human, UniProt Q92956 39-283).
T2 construct: whole, on cells; also called TR2
T2 sequence (looked up): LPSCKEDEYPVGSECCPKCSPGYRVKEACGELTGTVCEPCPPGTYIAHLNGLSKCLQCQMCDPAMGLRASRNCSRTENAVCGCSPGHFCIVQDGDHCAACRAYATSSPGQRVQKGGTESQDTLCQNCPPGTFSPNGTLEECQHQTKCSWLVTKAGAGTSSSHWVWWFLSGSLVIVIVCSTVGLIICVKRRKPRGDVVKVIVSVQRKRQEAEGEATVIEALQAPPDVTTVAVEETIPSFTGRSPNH
Described as above.
Excerpt: as §1, §2

T1 sequence (Q07011 24-255): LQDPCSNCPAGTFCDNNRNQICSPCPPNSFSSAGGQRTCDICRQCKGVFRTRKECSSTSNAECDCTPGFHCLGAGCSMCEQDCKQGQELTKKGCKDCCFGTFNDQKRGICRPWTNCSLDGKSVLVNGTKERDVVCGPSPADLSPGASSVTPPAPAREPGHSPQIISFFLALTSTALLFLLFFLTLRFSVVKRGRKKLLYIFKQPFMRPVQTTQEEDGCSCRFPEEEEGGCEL

B1: OX40mAb24 (antibody, human IgG1, kappa)
heavy: QVQLQESGPGLVKPSQTLSLTCAVYGGSFSSGYWNWIRKHPGKGLEYIGYISYNGITYHNPSLKSRITINRDTSKNQYSLQLNSVTPEDTAVYYCARYKYDYDGGHAMDYWGQGTLVTVSSASTKGPSVFPLAPSSKSTSGGTAALGCLVKDYFPEPVTVSWNSGALTSGVHTFPAVLQSSGLYSLSSVVTVPSSSLGTQTYICNVNHKPSNTKVDKRV[skipping human IgG1 Fc]
light: DIQMTQSPSSLSASVGDRVTITCRASQDISNYLNWYQQKPGKAPKLLIYYTSKLHSGVPSRFSGSGSGTDYTLTISSLQPEDFATYYCQQGSALPWTFGQGTKVEIKRTVAAPSVFIFPPSDEQLKSGTASVVCLLNNFYPREAKVQWKVDNALQSGNSQESVTEQDSKDSTYSLSSTLTLSKADYEKHKVYACEVTHQGLSSPVTKSFNRGEC
notes: Humanized from 9B12; human IgG1 kappa; also called humanized anti-human OX40 IgG1κ monoclonal antibody
B1: the “fold of EC50 in the cyno/rhesus 2-cell assay over human 2-cell assays with the Raji B-cell line” value in experiment [1] stood at 1.3 fold. Also, the binding result in experiment [2] and in experiment [3] was “no binding (tested: 1 µg/mL)” throughout.

These data come from US20160137740A1 (AstraZeneca / MedImmune, published 2016).
